The list shows a part of the results.
Assays:
HSkMC = human skeletal muscle cells; experiment: cytotoxicity call (relative viability < 0.9); settings: 10 µM
HepG2 = experiment: cytotoxicity call (relative viability < 0.9); settings: 10 µM
S. aureus RN4220 = experiment: growth inhibition call (relative growth <= 0.2); settings: 50 µM

C[C@H](C(=O)O)N1C(=O)CCC1=O
inactive: cytotoxicity call (HSkMC) | cytotoxicity call (HepG2) | growth inhibition call (S. aureus RN4220)

C[C@H]1CN([C@@H](C)CO)C(=O)Cc2cc(NC(=O)CCN3CCOCC3)ccc2O[C@@H]1CN(C)Cc1ccc(C(=O)Nc2ccccc2N)cc1
inactive: cytotoxicity call (HSkMC) | cytotoxicity call (HepG2) | growth inhibition call (S. aureus RN4220)

Cc1noc(C)c1NC(=O)Nc1ccc2c(c1)CC(=O)N([C@H](C)CO)C[C@H](C)[C@@H](CN(C)CC1CC1)O2
inactive: cytotoxicity call (HSkMC) | cytotoxicity call (HepG2) | growth inhibition call (S. aureus RN4220)

COc1ccc(NC(=O)Nc2ccc3c(c2)C(=O)N([C@@H](C)CO)C[C@@H](C)[C@H](CN(C)Cc2ccncc2)OCCCC[C@@H](C)O3)cc1
inactive: cytotoxicity call (HSkMC) | cytotoxicity call (HepG2) | growth inhibition call (S. aureus RN4220)

C[C@@H]1CN([C@@H](C)CO)C(=O)c2cc(NC(=O)Nc3ccccc3)ccc2O[C@@H](C)CCCCO[C@@H]1CN(C)C(=O)Nc1cccc2ccccc12
inactive: cytotoxicity call (HSkMC) | cytotoxicity call (HepG2) | growth inhibition call (S. aureus RN4220)

COc1ccc(C#Cc2cnc3c(c2)C(=O)N([C@@H](C)CO)C[C@@H](C)[C@@H](CN(C)CC2CCOCC2)O3)cc1
inactive: cytotoxicity call (HSkMC) | cytotoxicity call (HepG2) | growth inhibition call (S. aureus RN4220)

NCC[S@@](=O)c1c(-c2ccc(F)cc2)[nH]c2ccccc12
inactive: cytotoxicity call (HSkMC) | cytotoxicity call (HepG2) | growth inhibition call (S. aureus RN4220)

Cc1cc(C)c(C)c(C(=O)O)c1C
inactive: cytotoxicity call (HSkMC) | cytotoxicity call (HepG2) | growth inhibition call (S. aureus RN4220)

C[C@H]1CCCCO[C@H](CN(C)C(=O)CCC(F)(F)F)[C@@H](C)CN([C@@H](C)CO)C(=O)c2cc(NC(=O)c3ccccc3)ccc2O1
inactive: cytotoxicity call (HSkMC) | cytotoxicity call (HepG2) | growth inhibition call (S. aureus RN4220)

C[C@@H]1CCCCO[C@@H](CN(C)Cc2ccc(Cl)c(Cl)c2)[C@H](C)CN([C@H](C)CO)C(=O)c2cc(NC(=O)Nc3ccc(C(F)(F)F)cc3)ccc2O1
inactive: cytotoxicity call (HSkMC) | cytotoxicity call (HepG2) | growth inhibition call (S. aureus RN4220)

COc1ccc(NS(=O)(=O)c2ccc(N)cc2)nn1
inactive: cytotoxicity call (HSkMC) | cytotoxicity call (HepG2) | growth inhibition call (S. aureus RN4220)

O=C(C[C@@H]1CC[C@H]2[C@@H](COC[C@H](O)CN2S(=O)(=O)c2cccc(F)c2)O1)NCCCN1CCOCC1
inactive: cytotoxicity call (HSkMC) | cytotoxicity call (HepG2) | growth inhibition call (S. aureus RN4220)

Cc1ccc(S(=O)(=O)Nc2ccc3c(c2)C(=O)N([C@H](C)CO)C[C@@H](C)[C@H](CN(C)C(=O)Nc2ccc(C(F)(F)F)cc2)OCCCC[C@@H](C)O3)cc1
inactive: cytotoxicity call (HSkMC) | cytotoxicity call (HepG2) | growth inhibition call (S. aureus RN4220)

Reference: the antibiotic and cytotoxicity screens of Wong et al. (2023)
